Values marked as one replicate rest on one cluster of the flow cell; about a third of the high ones do not repeat.
tested on: ATP; experiment: switch fluorescence ratio, 500 uM ATP over buffer (Cy3 cluster intensity, sum of 5 cycles each) (fold (ratio)); higher = stronger signal-on switching upon ATP binding; sequences stand for … in TCGTCGGCAGCGTCAGATGTGTATAAGAGACAGTTTTTTTTTTTTTTTTTTTTTTTTT…TC; settings: aptamer strand: ATP DNA aptamer (quencher-CACCTGGGGGAGTATTGCGGAGGAAGG + anchor), 100 nM annealed; ATP concentration: 500 uM; one replicate
Summary of the method: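 Between each of five buffer/ATP cycles, the flow-cell was stripped with NaOH and re-annealed. Each cycle imaged Cy3-labelled switching-strand clusters, annealed to 100 nM quencher-labelled ATP aptamer on a modified Illumina MiSeq flow-cell, first in selection buffer and then after 15 min with 500 uM ATP at 22 °C. The fluorescence ratio is summed target-cycle over summed buffer-cycle Cy3 intensity per cluster, averaged per switch-domain sequence, with clusters outside 100-1000 RFU excluded.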
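Further: ATP exposure 15 min at 22 °C before imaging.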

Sequence	switch fluorescence ratio
GGACATAGGA	0.968
GGACATCAAG	1.03
GGACATGTCA	1
GGACCAAGAC	2.32
GGACCATATG	1.01
GGACCCTTGG	1.01
GGACCGCATA	3.38
GGACGAACAA	1.13
GGACGAGCAG	1.04
GGACGCAGGG	1.08
GGACGGCTGG	0.948
GGACGGGGAG	0.959
GGACGGTCGC	0.997
GGACGTTTGA	1.04
GGACTACCCC	1.04
GGACTACGAC	1.11
GGACTAGGTA	0.989
GGACTATAAA	1.05
GGACTCTTGG	0.989
GGACTCTTT	0.994
GGAGAAAGGG	1.01
GGAGAAAT	1.05
GGAGAACGAC	1.08
GGAGACAGAG	0.967
GGAGACTTCT	0.991
GGAGAGCACG	0.923

Sequence	switch fluorescence ratio
GGAGATCCGT	1
GGAGATGAGG	1.01
GGAGATGGAG	1.01
GGAGATTAGT	0.972
GGAGATTCCT	0.972
GGAGCATTCC	1.76
GGAGCGATCA	1.15
GGAGGCAATC	2.17
GGAGGCTACC	0.948
GGAGGCTATT	1.05
GGAGGGCTGC	1.01
GGAGGGGGCT	0.967
GGAGGTAGAG	0.937
GGAGGTCAAA	0.98
GGAGGTTAGC	1
GGAGTCAGTA	1.02
GGAGTCCCCC	0.974
GGAGTCGCCC	0.991
GGAGTGCATA	1.03
GGAGTGCCCG	1
GGAGTGTA	0.907
GGAGTGTTC	0.912
GGAGTTCGGT	0.995
GGAGTTGTAA	1.04
GGATAACATT	0.992
GGATAAGCAC	1.26

Sequence	switch fluorescence ratio
GGATAAGGG	0.988
GGATAAGTGT	0.97
GGATACAGGG	1.05
GGATACGGAC	1.46
GGATACGTTC	1.01
GGATAGATTT	0.976
GGATATCGCA	1.05
GGATATGCAC	1.07
GGATATGCGG	1.12
GGATCAGCTA	1.03
GGATCCGATC	1.01
GGATCCGTGG	1.05
GGATCGGGGT	0.998
GGATCTAAGC	1
GGATCTATAT	0.976
GGATCTCGTG	0.982
GGATCTGATA	0.987
GGATGAAATA	1.03
GGATGAGAAT	1.05
GGATGAGTTG	0.934
GGATGCCGGT	1
GGATGGCGGG	1.05
GGATGGGAGA	0.99
GGATGGGTTA	0.995
GGATGTCCGA	1.02
GGATGTGAG	0.976

Sequence	switch fluorescence ratio
GGATTATTGA	0.963
GGATTCAGTG	1.07
GGATTCCATA	1.03
GGATTCGGAC	0.983
GGATTCTTAT	0.982
GGATTGAGAT	0.956
GGATTTAGAG	1.02
GGATTTTCTT	0.994
GGCAAAGCGG	1.04
GGCAAATAAT	0.997
GGCAATATTA	1.17
GGCAATTGCT	0.99
GGCACCTGTG	1.03
GGCACGCGAT	1.59
GGCACGGTAG	1.02
GGCACTCGG	0.994
GGCACTCTCG	1.01
GGCACTGAGT	1.07
GGCAGACTCT	1.3
GGCAGGATCG	0.934
GGCAGGTCTT	0.989
GGCATCAGAG	1.01
GGCATCGCAA	1.61
GGCATGGATG	0.969
GGCATGGGAG	0.974
GGCATGTTGT	0.972

Sequence	switch fluorescence ratio
GGCATTCATG	1.01
GGCATTGAAA	1.18
GGCATTGGAG	0.988
GGCATTTTGA	0.993
GGCCAAACAG	1.01
GGCCAAATGT	1.03
GGCCAACATT	0.952
GGCCAAGGT	0.992
GGCCCAGCTG	1.04
GGCCCCCCGG	1.12
GGCCCGGGT	1.01
GGCCCGTATG	1.03
GGCCCTACGT	1.03
GGCCCTCGGA	0.975
GGCCCTGTC	1.03
GGCCGATCGT	1.01
GGCCGCACGT	1.05
GGCCGCCAAA	1.02
GGCCGCTTTG	1.08
GGCCGGAACT	1.07
GGCCGGAGCT	1.02
GGCCGGATTT	1.02
GGCCGGTTAA	1.02
GGCCGTAGAT	1.02
GGCCTATAGT	0.997
GGCCTATGGG	0.993

Sequence	switch fluorescence ratio
GGCCTCGAAG	1.02
GGCCTGCG	0.95
GGCCTGGAAT	1.01
GGCCTTAAAA	0.929
GGCCTTCAAT	1.01
GGCCTTCTTT	0.997
GGCCTTGA	0.978
GGCCTTGTTG	1.04
GGCCTTTCGT	1.02
GGCCTTTTGC	0.969
GGCGAAATAT	1.1
GGCGACAGTG	0.961
GGCGACCTT	1.12
GGCGAGGTCG	0.985
GGCGAGTCGA	1
GGCGAGTGAA	1.02
GGCGATACTG	1.67
GGCGATATTC	1.08
GGCGCCAATA	1.36
GGCGCCCGGT	0.961
GGCGCCTAAG	1.03
GGCGCTGACA	0.976
GGCGCTGCTC	0.981
GGCGCTTGGT	0.998
GGCGGAAGCT	1.02
GGCGGATGCC	0.997

Sequence	switch fluorescence ratio
GGCGGGCGTT	0.985
GGCGGGGTTT	0.956
GGCGGTAAGC	1.04
GGCGGTAGG	1.02
GGCGGTCGGA	1.03
GGCGGTGCTG	0.956
GGCGTATGCT	1.04
GGCGTCAGCA	0.98
GGCGTCCCGC	0.999
GGCGTCCCTG	1.02
GGCGTCCTAA	0.987
GGCGTCGGGG	0.989
GGCGTGTTCG	1
GGCGTTATTA	1.01
GGCGTTTGCG	1.03
GGCTACACTA	1.02
GGCTACATT	0.985
GGCTACCCAG	1.04
GGCTACTTCG	0.999
GGCTAGATTC	1.01
GGCTAGGTAT	1.05
GGCTCAGCGT	1.11
GGCTCGGACA	1
GGCTCTCCAG	0.967
GGCTGAAGGT	0.986
GGCTGATAAG	0.96

Sequence	switch fluorescence ratio
GGCTGATAGT	0.985
GGCTGCGTA	1.06
GGCTGCTGGG	0.945
GGCTGGGCTA	0.998
GGCTGTCGGT	1.01
GGCTTAATGC	0.986
GGCTTACGG	0.984
GGCTTCACTA	0.978
GGCTTCTGGT	1.06
GGCTTTATTA	0.963
GGGAAACGTT	1.04
GGGAAAGACG	0.995
GGGAAAGGA	1.01
GGGAAAGGCC	0.99
GGGAAATTT	1.1
GGGAACAATG	1.04
GGGAACAGCG	0.981
GGGAACCATA	0.958
GGGAACCCTT	0.974

— the supplement of paper PMC10126150
